# This is one part of the list.
# B1: PhoQ; a variant is named by its letters at X, in order, P23837 (parent)
# chain: MKKLLRLFFPLSLRVRFLLATAAVVLVLSLAYGMVALIGYSVSFDKTTFRLLRGESNLFYTLAKWENNKLHVELPENIDKQSPTMTLIYDENGQLLWAQRDVPWLMKMIQPDWLKSNGFHEIEADVNDTSLLLSGDHSIQQQLQEVREDDDDAEMTHSVAVNVYPATSRMPKLTIVVVDTIPVELKSSYMVWSWFIYVLSANLLLVIPLLWVAAWWSLRPIEALAKEVRELEEHNRELLNPATTRELTSLVRNLNRLLKSERERYDKYRTTLTDLTHSLKTPLXXLQXXLRSLRSEKMSVSDAEPVMLEQISRISQQIGYYLHRASMRGGTLLSRELHPVAPLLDNLTSALNKVYQRKGVNISLDISPEISFVGEQNDFVEVMGNVLDNACKYCLEFVEISARQTDEHLYIVVEDDGPGIPLSKREVIFDRGQRVDTLRPGQGVGLAVAREITEQYEGKIVAGESMLGGARMEVIFGRQHSAPKDE
# Variants of: B1
# Experiment: enrichment ratio after two sorts for PhoP signalling (ratio (wild type AVST 3.29)); higher = more functional
# Details: with PhoP (E. coli)
row,Variant,enrichment ratio
1,PHAT,≤ 0.25
2,MHWF,≤ 0.25
3,HMIR,≤ 0.25
4,YSDM,≤ 0.25
5,QWCS,≤ 0.25
6,FGAV,≤ 0.25
7,FPKH,≤ 0.25
8,FQVI,≤ 0.25
9,SEWC,1.88
10,MMKM,≤ 0.25
11,AQLR,≤ 0.25
12,ITFI,≤ 0.25
13,QSHR,≤ 0.25
14,GKPS,≤ 0.25
15,ELQF,≤ 0.25
16,MRYG,≤ 0.25
17,SWTI,≤ 0.25
18,ALGP,≤ 0.25
19,NYGF,≤ 0.25
20,RLRK,≤ 0.25
21,RWSG,≤ 0.25
22,MEMQ,≤ 0.25
23,HFLA,≤ 0.25
24,GKHY,≤ 0.25
25,AKAH,4.55

row,Variant,enrichment ratio
1,EDEC,≤ 0.25
2,YTCT,≤ 0.25
3,DYRH,≤ 0.25
4,ADWY,≤ 0.25
5,QNTG,≤ 0.25
6,ARFI,≤ 0.25
7,DRIE,≤ 0.25
8,DINM,≤ 0.25
9,GIAH,22.5
10,LTST,≤ 0.25
11,MKIN,≤ 0.25
12,LFGY,≤ 0.25
13,FDRK,≤ 0.25
14,WEMA,≤ 0.25
15,QPDL,≤ 0.25
16,AWCD,≤ 0.25
17,DSWM,≤ 0.25
18,SIPQ,≤ 0.25
19,PGRV,≤ 0.25
20,MEPH,≤ 0.25
21,AQTT,9.04
22,FLDP,≤ 0.25
23,WRNA,≤ 0.25
24,YIKT,≤ 0.25
25,RPPY,≤ 0.25

row,Variant,enrichment ratio
1,PSAI,≤ 0.25
2,TYPP,≤ 0.25
3,NCKF,≤ 0.25
4,QQVL,2.39
5,ILAD,≤ 0.25
6,QSNH,4.12
7,NFPD,≤ 0.25
8,RLQR,≤ 0.25
9,WGGP,≤ 0.25
10,QCFE,≤ 0.25
11,IANT,≤ 0.25
12,GDHL,≤ 0.25
13,PQKN,≤ 0.25
14,PEFH,≤ 0.25
15,NDDH,≤ 0.25
16,FQEC,≤ 0.25
17,QQII,≤ 0.25
18,VQPV,≤ 0.25
19,SKKQ,≤ 0.25
20,FRHQ,≤ 0.25
21,KMLD,≤ 0.25
22,PSHG,≤ 0.25
23,IGVN,≤ 0.25
24,AHCK,≤ 0.25
25,VIGS,≤ 0.25

row,Variant,enrichment ratio
1,NNTN,≤ 0.25
2,SAYG,≤ 0.25
3,DAGE,≤ 0.25
4,MWSY,≤ 0.25
5,QRLA,≤ 0.25
6,AQIL,7.19
7,YHEI,≤ 0.25
8,GRIG,≤ 0.25
9,ALIS,≤ 0.25
10,GDWA,≤ 0.25
11,RIVD,≤ 0.25
12,MRVY,≤ 0.25
13,ETIR,≤ 0.25
14,AFMV,≤ 0.25
15,FNCK,≤ 0.25
16,GITT,≤ 0.25
17,LPTH,≤ 0.25
18,VPMM,≤ 0.25
19,ATKY,≤ 0.25
20,DCAP,≤ 0.25
21,NSWH,≤ 0.25
22,PRHL,≤ 0.25
23,SLCP,≤ 0.25
24,KALE,≤ 0.25
25,HPRY,≤ 0.25

row,Variant,enrichment ratio
1,VCGD,≤ 0.25
2,AFVD,≤ 0.25
3,GRRT,≤ 0.25
4,GIVH,8.59
5,RSTG,≤ 0.25
6,SFGW,≤ 0.25
7,TKYQ,≤ 0.25
8,AQQG,12.7
9,AVIY,≤ 0.25
10,WNMS,≤ 0.25
11,GNPL,≤ 0.25
12,TLKR,≤ 0.25
13,RAKF,≤ 0.25
14,RKEW,≤ 0.25
15,IVFD,≤ 0.25
16,YDIM,≤ 0.25
17,SFVF,≤ 0.25
18,LMTQ,≤ 0.25
19,DVYT,≤ 0.25
20,NPTA,≤ 0.25
21,KETR,≤ 0.25
22,KNMH,≤ 0.25
23,GADI,≤ 0.25
24,IGGE,≤ 0.25
25,EFAD,≤ 0.25

row,Variant,enrichment ratio
1,NPDG,≤ 0.25
2,DNQD,≤ 0.25
3,GRFR,≤ 0.25
4,LQEM,≤ 0.25
5,SNWT,≤ 0.25
6,VKFQ,≤ 0.25
7,LKPW,≤ 0.25
8,VHKK,≤ 0.25
9,MGRK,≤ 0.25
10,EEPW,≤ 0.25
11,AQRA,≤ 0.25
12,GIGK,≤ 0.25
13,TPHN,≤ 0.25
14,NHWM,≤ 0.25
15,HDVL,≤ 0.25
16,QPQA,≤ 0.25
17,ALWS,≤ 0.25
18,VQRE,≤ 0.25
19,GWAP,≤ 0.25
20,GQQA,≤ 0.25
21,FFNG,≤ 0.25
22,MVPV,≤ 0.25
23,NTMW,≤ 0.25
24,VINL,≤ 0.25
25,KPFW,≤ 0.25

row,Variant,enrichment ratio
1,EPSP,≤ 0.25
2,WRRR,≤ 0.25
3,MGSE,≤ 0.25
4,IPSI,≤ 0.25
5,QDGK,≤ 0.25
6,TRNN,≤ 0.25
7,PDSL,≤ 0.25
8,PPWN,≤ 0.25
9,RVPR,≤ 0.25
10,SNCQ,9.32
11,MYKH,≤ 0.25
12,VLSL,0.415
13,QLYL,8.95
14,DSTL,≤ 0.25
15,DMIT,≤ 0.25
16,YVFK,≤ 0.25
17,KFAH,≤ 0.25
18,IITH,≤ 0.25
19,ALCN,3.89
20,SGMP,≤ 0.25
21,GLCT,≤ 0.25
22,EPLW,≤ 0.25
23,RWFD,≤ 0.25
24,KSQQ,≤ 0.25
25,GGYY,≤ 0.25

row,Variant,enrichment ratio
1,AFNI,≤ 0.25
2,RWKG,≤ 0.25
3,DRGE,≤ 0.25
4,KEDF,≤ 0.25
5,PWHK,≤ 0.25
6,AGSC,10.4
7,MMDC,≤ 0.25
8,CPII,≤ 0.25
9,DHCN,≤ 0.25
10,SQRW,≤ 0.25
11,DFAL,≤ 0.25
12,RSVS,≤ 0.25
13,GEIW,≤ 0.25
14,LYKM,≤ 0.25
15,KFQN,≤ 0.25
16,PLLV,≤ 0.25
17,FQEY,≤ 0.25
18,MIQG,0.317
19,DIAT,≤ 0.25
20,EHIQ,≤ 0.25

# — a collection of fitness landscapes (doi:10.1126/science.1257360)
